In PubChem BioAssay AID651820 (National Center for Advancing Translational Sciences (NCATS), 2012):
Screen size: about 340,000 compounds; about 12,000 (3.5%) were called active. Inconclusive means that the source gave no clear call. Such entries were picked first, then a sample of the others. Calls come from the whole dose curve; as a rule, active = well fitted inhibition curve with a large enough effect; inconclusive = small, poorly fitted or top-dose-only effect, or another doubt; inactive = no such curve, though single readings can be large or run the other way. No potency is given beside an inconclusive call; the fits are too rough.

Experiment: qHTS Assay for Inhibitors of Hepatitis C Virus (HCV)
Conditions: Huh7.5.1 HCVcc-Cre (HCVcc is cell-culture hepatitis C virus) infection, luciferase reporter, 44 h; activity change, negative = inhibition: at 41.8 µM (top of the series) unless noted
Summary of the method: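 A cell-based infection assay in which seeded cells (1,000 per well) receive test compound after 4 h, are inoculated with HCVcc-Cre at approximately 0.5 moi, and are incubated 44 h before luminescence detection.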
% is set by controls: 0 for no effect and ±100 for the full control effect; potency is the fitted concentration of half-maximal effect; tags give direction and shape of the fitted curve.

SMILES	Potency	activity change, negative = inhibition
O=c1c2ccccc2sn1-c1nccs1	inconclusive [inhibitor, single point]	–
CCOC(=O)C1CCN(Cc2ccc(OC)cc2OC)CC1	inactive	–
CC(C)[C@H](NS(=O)(=O)c1cccc(C(F)(F)F)c1)C(=O)OCC(N)=O	inactive	–
Cc1cccc(NC(=O)c2ccc(Cl)c(S(=O)(=O)N3CCc4ccccc43)c2)n1	inconclusive [inhibitor, single point]	–
Cc1ccc(NC(=O)Nc2cccc([N+](=O)[O-])c2)cc1F	active: 11.2 µM	–
CSCCC(NS(=O)(=O)c1ccc(Cl)cc1)C(=O)OCC(=O)c1c(C)[nH]c2ccccc12 (centres undefined)	inactive	–
COc1ccc(NC(=O)CSc2nnc(-c3cnccn3)n2C)cc1OC	inactive	–
O=c1c2cc(F)ccc2sn1-c1ccccc1	inconclusive [inhibitor, single point]	–
O=C(CSc1nnc(NC(=O)c2ccco2)s1)Nc1ccccc1	inactive	–
NC1=NC2=C(CCCC2)C2(CCCCC2)S1	inconclusive [inhibitor, single point]	–
Cc1ccc(-c2cnn3c(N4CCOCC4)cc(C)nc23)cc1	inconclusive [inhibitor, single point]	–
COc1ccc(C)c2sc(N(CCCN(C)C)C(=O)c3ccc(S(=O)(=O)N4CCc5ccccc5C4)cc3)nc12	inconclusive [inhibitor, single point]	–
CCCC(=O)Nc1ccc(C(=O)O)cc1NC(=O)CCC	inactive	–
O=C1NC(C(=O)O)=CC(c2cccc(Cl)c2Cl)N1 (centres undefined)	inactive	–
CN(C)CCNS(=O)(=O)c1ccc(N2CCN(c3ccc(F)cc3)CC2)c([N+](=O)[O-])c1	active: 10 µM	–
CCOC(=O)c1ccc(Nc2nnc(C(C)(C)C)c(=O)[nH]2)cc1	inactive	–
NC1=NC[C@H](c2ccccc2)N1CCc1cc(C(F)(F)F)cc(C(F)(F)F)c1	inconclusive [inhibitor, partial curve]	–
COc1ccc(S(=O)(=O)N2CCN(CCOc3ccccc3Cl)CC2)cc1OC	inconclusive [inhibitor, single point]	–
CCn1nc(C(=O)Nc2cccc(S(=O)(=O)N3CCCC3)c2)c2ccccc2c1=O	inconclusive [inhibitor, partial curve]	–
CCCn1c(=N)n(CC(O)c2ccc(C)cc2)c2ccccc21 (centres undefined)	inactive	–
Cc1ccc(CNC(=O)c2cc(S(=O)(=O)N3CCCCC3)ccc2N2CCOCC2)cc1	inconclusive [inhibitor, single point]	–
COc1ccc(-c2nn(CCC#N)cc2C(=O)Nc2ccccc2)cc1OC	inactive	–
CC[C@H](C)[C@H](NC(=O)c1ccc(Cl)cc1)C(=O)OCC(=O)c1ccc2c(c1)NC(=O)CO2	inconclusive [inhibitor, single point]	–
Cc1c(C(=O)NCc2cccnc2)sc2nc(-c3ccccc3)cn12	inactive	–
Cc1cccc(N(C(=O)CCC(=O)Nc2nccs2)C(C(=O)NC(C)(C)C)c2ccc(O)cc2)c1 (centres undefined)	inactive	–

SMILES	Potency	activity change, negative = inhibition
CCOC(=O)c1[nH]c2c(c1-c1ccc(OC)cc1)C(=O)CC(c1ccc(OC)c(OC)c1)C2 (centres undefined)	inconclusive [inhibitor, partial curve]	–
CCN(CC)CCn1c(NC(=O)c2ccc(C)cc2)nc2ccccc21	inconclusive [inhibitor, single point]	–
CCN(C(=O)COC(=O)c1cc2c(s1)CCC(C)C2)c1c(N)n(Cc2ccccc2)c(=O)[nH]c1=O (centres undefined)	inconclusive [inhibitor, single point]	–
O=C(CSc1cccc[n+]1[O-])N1CCCc2ccccc21	inactive	–
NNC(=O)C(=O)Nc1ccc(Cl)c(Cl)c1	–	inconclusive: -49.3% [inhibitor]
COc1ccc(/C=C2\CCC/C(=C\C=N\N(C)C)C2=O)cc1	inconclusive [inhibitor, partial curve]	–
O=C(NCCCN1CCC(Cc2ccccc2)CC1)C1CC(=O)N(C2CCCC2)C1 (centres undefined)	inconclusive [inhibitor, single point]	–
COC(=O)c1ccc(NC(=O)Nc2ccccc2F)cc1	inconclusive [inhibitor, single point]	–
Cn1c(/C=N/Nc2nc3ccccc3[nH]2)nc2ccccc21	inconclusive [inhibitor, single point]	–
CCc1nc2ccc(C(=O)N(C)CC(=O)Nc3cccc(F)c3)cc2nc1CC	inconclusive [inhibitor, partial curve]	–
NS(=O)(=O)c1ccc(NC2=CC(c3ccc([N+](=O)[O-])cc3)N(c3ccc(S(N)(=O)=O)cc3)C2=O)cc1 (centres undefined)	inactive	–
Cc1ccc(C(C)C)c(OCC(=O)N/N=C/c2cccn2C)c1	inconclusive [inhibitor, partial curve]	–
O=C(Oc1ccc(NC2=NS(=O)(=O)c3ccccc32)cc1)c1cccnc1	inactive	–
N#Cc1cc2c(nc1SCC(N)=O)CCCCC2	inactive	–
O=C(COC(=O)c1cc(NS(=O)(=O)c2cccs2)ccc1O)Nc1ccccc1	inactive	–
CC12CCC=CC1=C(C=O)C1C2CCC2(C)C(O)CCC12 (centres undefined)	inactive	–
NC(=O)c1ccccc1NC(=O)/C=C/c1c(Cl)cccc1Cl	inconclusive [inhibitor, single point]	–
CCn1c(N2CCN(C(=O)C34CC5CC(CC(C5)C3)C4)CC2)nc2ccccc21	inactive	–
Cc1cc(C)c(S(=O)(=O)N2CCCCC2CCNC(=O)C(=O)NCc2ccco2)c(C)c1 (centres undefined)	inconclusive [inhibitor, single point]	–
CC(C)OC(=O)c1ccc(NC(=O)c2cncc(Br)c2)cc1	inconclusive [inhibitor, partial curve]	–
CC(=O)c1ccc(NC(=O)C(C)N2CCN(C/C=C/c3ccccc3)CC2)cc1 (centres undefined)	inconclusive [inhibitor, single point]	–
Cc1ccc(/C=N\NC(=O)/C(=C\Nc2nccc(C)n2)NC(=O)c2ccccc2)cc1	inconclusive [inhibitor, single point]	–
Cc1ccc(C(=O)COC(=O)c2cn(-c3ccccc3)nc2-c2ccccc2)cc1[N+](=O)[O-]	inconclusive [inhibitor, partial curve, poor fit]	–
CC(=O)NC12CC3CC(C1)CC(C(=O)N1CCN(S(=O)(=O)c4cccc(C(F)(F)F)c4)CC1)(C3)C2	inactive	–
CCOC(=O)C1(Cc2cccc(OC)c2)CCN(Cc2cccc(OC)c2O)CC1	inconclusive [inhibitor, single point]	–

SMILES	Potency	activity change, negative = inhibition
COc1ccc(Cn2nnnc2C(c2cc3cc(C)cc(C)c3[nH]c2=O)N2CCOCC2)cc1 (centres undefined)	inactive	–
Cc1ccc2c(c1)nnn2C1CCN(S(C)(=O)=O)CC1	inactive	–
COc1ccc(C(=O)NC(Nc2ccccc2)C(Cl)(Cl)Cl)cc1 (centres undefined)	active: 7.94 µM	–
CCOC(=O)C(NC(=O)CC)(Nc1ccccc1OC)C(F)(F)F (centres undefined)	inactive	–
COc1cccc(CNCc2ccccc2OC)c1	inactive	–
Cc1cc(CNC(=O)C2(C(F)(F)F)C/C(=C\Cc3ccccc3)CCCO2)nn1C (centres undefined)	inactive	–
Cc1ccc(OCC(=O)N2CCN(Cc3ccc4c(c3)OCO4)CC2)cc1	inactive	–
COc1ccc2[nH]c(C(=O)NCc3ccc4c(c3)OCO4)cc2c1	inconclusive [inhibitor, partial curve, poor fit]	–
CCOc1ccc(NC(=O)c2ccc(NC(=S)NC3CCCCC3)cc2)cc1	inconclusive [inhibitor, full curve]	–
CCOc1ccc(CCN2C(=O)C(=O)N([C@@H](CC(C)C)CN3CCC[C@@H]3CN3C(=O)C(=O)NC[C@@H]3Cc3ccccc3)C[C@@H]2CC(C)C)cc1	inactive	–
O=C(NC1CCCCC1)C(c1ccccc1F)N(C(=O)c1csnn1)C1CCCC1 (centres undefined)	inactive	–
COc1cc(NC(C)CCCNC(C)C)c2ncccc2c1OC (centres undefined)	inconclusive [inhibitor, single point]	–
Cc1cccc(N(Cc2cc3ccc(C)cc3[nH]c2=O)S(=O)(=O)c2ccccc2)c1	inconclusive [inhibitor, single point]	–
Cc1nc(OCC(C)C)c2sc3nc4c(cc3c2n1)COC(C)(C)C4	inactive	–
N#Cc1cn(CCOc2ccc(F)cc2)c2ccccc12	inconclusive [inhibitor, single point]	–
COc1ccc(CCNC(=O)COC(=O)Cc2c[nH]c3ccccc23)cc1OC	inconclusive [inhibitor, partial curve]	–
Cc1cccc2nc(C(=O)Nc3cc(Cl)ccc3-n3cncn3)cn12	inconclusive [inhibitor, single point]	–
O=C(COC(=O)c1cccc(S(=O)(=O)NCc2ccccc2)c1)c1ccc2c(c1)OCCO2	inconclusive [inhibitor, single point]	–
Cc1c(C(=O)NCC(C)(C)N2CCOCC2)oc2ccccc12	inactive	–
COc1ccc(Cn2nnc(C(=O)Nc3ccc4c(c3)OCCO4)c2N)cc1Br	inactive	–
COC(=O)c1ccccc1CC1Cc2cc3c(cc2C1=O)CCC3 (centres undefined)	inconclusive [inhibitor, single point]	–
CCn1c(SCC(=O)Nc2nc3ccccc3s2)nnc1-c1ccc(OC)cc1	inactive	–
Oc1ccc(Br)cc1CNc1cnc2ccccc2c1	inconclusive [inhibitor, single point]	–
COc1ccc([N+](=O)[O-])cc1NC(=O)CCc1ccccc1	inconclusive [inhibitor, partial curve]	–
